Out of some 150,000 compounds screened, about 540 (0.36%) showed an effect of 50% or more. This is one part of the list.

In the experiment the test system is Plasmodium falciparum. Put plainly: Primary screen in NF54 nanoGlo assay, in single point, at 2uM, 72h; a lower Z score goes with more inhibition. The conditions noted are these: timepoint 72 hour. In kind it is functional, Erythrocyte.
What is called % Inhibition is the change of the read-out against control, counted positive when it falls. In the case of `O=C(C1Cc2ccccc2CO1)N1CCC(Oc2cnccn2)C1` (configuration not stated), the “% Inhibition” value is reported as -21% and the Z score is listed as 2.35.
The matching figures for `Cc1ccc2c(c1)cc(C(=O)N1[C@H]3CCNC[C@@H]1CC3)n2C`: 6% and -0.8.
For the compound `COc1ccccc1NC(=O)[C@H]1CCCN(S(=O)(=O)Cc2cccc(Cl)c2)C1`, the “% Inhibition” value is 9% and the Z score is given as -1.17.
Taken in the same sequence, the figures for `c1ccc2[nH]c(NC3CCCC3)nc2c1` were -3% and 0.23.
The matching figures for `COc1ccc(NC(=O)c2ccsc2)cn1`: -10% and 1.62.
The matching figures for `Cn1nc2n(c1=O)C(=O)N(c1cccc(F)c1)C2`: -6% and 0.76.
For the compound `CN(Cc1cc[nH]n1)c1cc(N2CCOCC2)ncn1`, the “% Inhibition” value came out at 13% and the Z score is -1.85.
The matching figures for `Cc1ncn(C)c1C(=O)N(C)Cc1cnn(C(C)C)c1`: 1% and -0.09.
On to `O=C(NC1CCCCC1)c1cncc(-c2ccccc2F)c1`, for which the “% Inhibition” value is recorded as -18% and the Z score worked out at 2.05.
Taken in the same sequence, the figures for `O=C1COc2ccc(S(=O)(=O)N3CCN(C(=O)Cc4ccc(F)cc4)CC3)cc2N1` were 2% and -0.24.
The matching figures for `CCn1c(=O)c2sccc2n(CC(=O)N(C)C2CCCCC2)c1=O`: 7% and -0.96.
The matching figures for `CN(CC(=O)NC(c1ccccc1)c1ccccc1)S(=O)(=O)c1cccc(Cl)c1`: 3% and -0.52.
Take `CN(C(=O)[C@@H]1CCN(c2ccccc2)C1=O)C1CCOCC1`: the “% Inhibition” value was found to be 1% and the Z score is on record as -0.1.
For the compound `CC1CC(Nc2ccc(S(C)(=O)=O)cc2)C(=O)N1c1ccccc1` (configuration not stated), the “% Inhibition” value is -3% and the Z score is given as 0.37.
The matching figures for `CCCN1CCC(NC(=O)OCC)CC1`: -16% and 1.49.
Taken in the same sequence, the figures for `C#CCN1CCC(C(=O)N(CCC#N)CC(C)(C)C)CC1` were -8% and 1.61.
Taken in the same sequence, the figures for `Cc1c(C(=O)NCCS(=O)(=O)N(C)C)nnn1CC1CCCC1` were -10% and 1.9.
For `COc1ccc(OC)c(-c2cc(C(=O)O)c(N)c3cccnc23)c1`, the “% Inhibition” value is -6% and the Z score turned out to be 1.04.
The matching figures for `CC(C)c1ccc(C2CC2C(=O)NS(=O)(=O)c2cccnc2)cc1` (configuration not stated): -6% and 0.97.
The matching figures for `CN(CCN(C)C1CCCC1)c1nccc(N)n1`: -9% and 1.1.
The matching figures for `COc1ccc(-c2c(N)nnc3c(-c4ccccc4)cnn23)cc1`: -15% and 2.82.
Turning to `CCCn1nnnc1CNc1ccc(C)c(NC(C)=O)c1C`, the “% Inhibition” value is recorded as -10% and the Z score was 1.43.
The matching figures for `O=C(CCc1ccc2c(c1)OCO2)N1CCC[C@H]1c1ccc[nH]1`: -10% and 1.29.
Taken in the same sequence, the figures for `Cc1cc(C(F)(F)F)n(C[C@@H](C)CNS(=O)(=O)N(C)C)n1` were -2% and 0.16.
Taken in the same sequence, the figures for `Cc1nc(C(=O)N(C)CCCOc2ccc(F)cc2)c2n1CCCC2` were -9% and 0.81.
`O=S(=O)(c1ccc(Cl)cc1)n1nc(-c2ccccc2)nc1NCc1ccco1`: the “% Inhibition” value is -5% and the Z score is reported as 0.62.
The matching figures for `CC(C)(C)C(=O)NC1CC2CC1C1CC21` (configuration not stated): 7% and -0.99.
Taken in the same sequence, the figures for `C[C@]1(C(N)=O)CCN(c2nnc(-c3ccc(C#N)cc3)n2Cc2ccco2)C1` were -3% and 0.51.
The matching figures for `O=C1CCc2cc(OS(=O)(=O)c3ccccc3)ccc2N1`: 29% and -3.87.
For the compound `Nc1c(C(=O)NC2CCS(=O)(=O)CC2)ccnc1-c1ccccc1`, the “% Inhibition” value was -11% and the Z score is on record as 1.73.
As to `COc1cc(C)nc(NC(=O)[C@H]2CCCO2)n1`, the “% Inhibition” value is recorded as -2% and the Z score is recorded as 0.33.
With `Cc1noc(C)c1CN1C(=O)N(c2ccc(Cl)cc2)c2ncccc2S1(=O)=O`, the “% Inhibition” value is -4% and the Z score amounted to 0.42.
Taken in the same sequence, the figures for `Cc1nsc(C(=O)NCCCn2ncccc2=O)n1` were -7% and 1.2.
Consider `O=C(NCCNc1cccc(Br)c1)Nc1cccnn1`, for which the “% Inhibition” value was -15% and the Z score was 1.48.
The matching figures for `COc1ccc(C(=O)N[C@@H](Cn2ccnn2)C(C)C)cn1`: 3% and -0.37.
The matching figures for `CC1CC(NC(=O)N[C@H]2CCCOC2)CC(c2ccccc2)C1` (some centres not stated): -10% and 1.34.
On to `CNc1ncccc1[C@@H]1C[C@H](NC(C)=O)C[C@H](Cc2ccccc2)O1`, for which the “% Inhibition” value is 6% and the Z score was -0.74.
The matching figures for `CN1CCC(CCNC(=O)CCCOc2ccccc2)CC1`: -3% and 0.48.
Taken in the same sequence, the figures for `CCc1ccc(CS(=O)(=O)NC(=O)[C@H]2CCCC(F)(F)C2)cc1` were -19% and 1.91.
The matching figures for `CCC(CC)CN(CC(=O)OC)S(=O)(=O)c1ccc(S(C)(=O)=O)cc1`: -13% and 1.86.
Turning to `CCn1cc(CC(=O)N2CCc3c(cccc3C(N)=O)C2)c2ccccc21`, the “% Inhibition” value was -1% and the Z score is 0.2.
The matching figures for `N#CC1(NC(=O)[C@@H]2CCN(c3ccc(F)c(F)c3)C2=O)CCC1`: -4% and 0.39.
Consider `CCn1cc(S(=O)(=O)N2CCC[C@H]2c2n[nH]c(C)n2)cn1`, for which the “% Inhibition” value is given as 10% and the Z score is -1.64.
The matching figures for `COc1ccccc1N1CCN(C(=O)c2snc3c(=O)n(C)c(=O)[nH]c23)CC1`: -1% and 0.15.
The matching figures for `COc1ccc2c(c1)CN(C(=O)c1oc3c(Cl)cccc3c1C)CC2`: -5% and 0.93.
Taken in the same sequence, the figures for `CCN(CC)C(=O)[C@H]1CC(=O)OC1(C)C` were -15% and 1.93.
`CN(CCC#N)c1ncc(C#N)cc1Cl`: the “% Inhibition” value is given as 6% and the Z score is given as -1.14.
Regarding `Cn1cc(C2CCCN2CC(O)c2ccccc2)cn1` (configuration not stated), the “% Inhibition” value is recorded as -8% and the Z score was found to be 1.11.
Taken in the same sequence, the figures for `Cc1ccc(Nc2nc(N)[nH]c(=O)n2)cc1` were -15% and 2.07.
The matching figures for `O=C(O)Cc1ccc(CNC(=O)CC2=CCCCC2)cc1`: 23% and -2.64.
Taken in the same sequence, the figures for `COc1ccc(CC(=O)Nc2ccc3c(c2)C(N2CCC(C)CC2)=Nc2ccccc2O3)cc1` were 5% and -0.73.
On to `CCCCCNC(=O)c1snc(C(=O)N2CCCC2)c1N`, for which the “% Inhibition” value is reported as -5% and the Z score amounted to 0.56.
The matching figures for `O=S(=O)(Oc1cccc(-c2nnco2)c1)c1ccc2c(c1)OCCCO2`: -4% and 0.67.
The matching figures for `CCN(CC)S(=O)(=O)c1cc(C(=O)NCc2ccc3c(c2)OCO3)n(C)c1`: 3% and -0.46.
Regarding `COc1ccc(C)cc1NC(=O)Cn1nc(C(=O)N2CCc3ccccc32)ccc1=O`, the “% Inhibition” value is -3% and the Z score was 0.35.
The matching figures for `O=c1c(NCc2ccccc2)nccn1-c1ccc2c(c1)OCCO2`: -11% and 1.22.

The record behind these values is ChEMBL document CHEMBL4888484, “Replenishing the malaria drug discovery pipeline: Screening and hit evaluation of the MMV Hit Generation Library 1 (HGL1) against asexual blood stage Plasmodium falciparum ,using a nano luciferase reporter read-out” (2022).
